Measured values reported in the antibiotic and cytotoxicity screens of Wong et al. (2023).
The list shows a part of the results.

Columns and labels:
[1] = test system: HSkMC (human skeletal muscle cells); experiment: cytotoxicity call (relative viability < 0.9); settings: 10 µM
[2] = test system: HepG2; experiment: cytotoxicity call (relative viability < 0.9); settings: 10 µM
[3] = test system: S. aureus RN4220; experiment: growth inhibition call (relative growth <= 0.2); settings: 50 µM

Row | Compound | cytotoxicity call [1] | cytotoxicity call [2] | growth inhibition call [3]
1 | NC(=O)Nc1nc2ccccc2[nH]c1=O | inactive | inactive | inactive
2 | C[C@H](CO)N1C[C@H](C)[C@@H](CN(C)Cc2ccc3c(c2)OCO3)Oc2c(NC(=O)C3CCOCC3)cccc2C1=O | inactive | inactive | inactive
3 | NC1(Cc2ccc(Cl)cc2)CCN(c2ncnc3[nH]ccc23)CC1 | inactive | active | inactive
4 | C[C@@H]1CN([C@@H](C)CO)C(=O)CCCn2nncc2CO[C@H]1CN(C)Cc1ccc(C(=O)Nc2ccccc2N)cc1 | inactive | inactive | inactive
5 | COc1ccc(NC(=O)N(C)C[C@H]2OCCCC[C@@H](C)Oc3ccc(NS(=O)(=O)c4ccc(Cl)cc4)cc3C(=O)N([C@@H](C)CO)C[C@@H]2C)cc1 | inactive | inactive | inactive
6 | COc1ccc(S(=O)(=O)N(C)C[C@@H]2Oc3ccc(NS(=O)(=O)c4cccs4)cc3CC(=O)N([C@@H](C)CO)C[C@H]2C)cc1 | inactive | inactive | inactive
7 | C[C@@H]1CN([C@H](C)CO)C(=O)Cc2cc(NC(=O)CCCCCC(=O)Nc3ccccc3N)ccc2O[C@@H]1CN(C)S(C)(=O)=O | inactive | inactive | inactive
8 | C[C@H]1CCCCO[C@H](CN(C)Cc2ccncc2)[C@@H](C)CN([C@@H](C)CO)C(=O)c2cc(NC(=O)CCC(F)(F)F)ccc2O1 | inactive | inactive | inactive
9 | Nc1ccn([C@H]2O[C@@H](CO)[C@@H](O)[C@@H]2O)c(=O)n1 | inactive | inactive | inactive
10 | Cc1noc(C)c1NC(=O)N(C)C[C@H]1OCCCC[C@H](C)Oc2ccc(NC(=O)c3ccccc3)cc2C(=O)N([C@@H](C)CO)C[C@H]1C | inactive | inactive | inactive
11 | C[C@@H]1CN([C@H](C)CO)C(=O)c2cc(C#CCN(C)C)cnc2O[C@@H]1CN(C)C(=O)CCN1CCCCC1 | inactive | inactive | inactive
12 | Cc1ccc(S(=O)(=O)N(C)C[C@H]2Oc3c(NC(=O)Nc4cccc5ccccc45)cccc3C(=O)N([C@@H](C)CO)C[C@H]2C)cc1 | inactive | inactive | inactive
13 | C[C@H]1CCCCO[C@@H](CN(C)C(=O)Nc2ccc3c(c2)OCO3)[C@@H](C)CN([C@@H](C)CO)C(=O)c2cc(NS(=O)(=O)c3ccccc3)ccc2O1 | inactive | inactive | inactive
14 | C[C@@H]1CN([C@@H](C)CO)C(=O)c2cc(NC(=O)CCC(F)(F)F)ccc2O[C@@H](C)CCCCO[C@H]1CN(C)C(=O)c1ccccc1 | inactive | inactive | inactive
15 | O=C(O)C[C@H]1Oc2ccccc2NC1=O | inactive | inactive | inactive
16 | C[C@H]1CN([C@@H](C)CO)C(=O)c2cccc(NC(=O)CCCCCC(=O)Nc3ccccc3N)c2O[C@@H]1CN(C)Cc1ccc(-c2ccccc2)cc1 | active | inactive | inactive
17 | C[C@@H]1CCCCO[C@@H](CN(C)S(=O)(=O)c2cccs2)[C@H](C)CN([C@@H](C)CO)C(=O)c2cc(NC(=O)Nc3ccc4c(c3)OCO4)ccc2O1 | inactive | inactive | inactive
18 | Cc1noc(C)c1NC(=O)Nc1cccc2c1O[C@H](CN(C)S(=O)(=O)c1cn(C)cn1)[C@H](C)CN([C@@H](C)CO)C2=O | inactive | inactive | inactive
19 | COc1ccc(NC(=O)N(C)C[C@@H]2Oc3ncc(C#CC(C)C)cc3C(=O)N([C@H](C)CO)C[C@@H]2C)cc1 | inactive | inactive | inactive
20 | C[C@@H]1CN([C@@H](C)CO)C(=O)c2cc(NC(=O)NC3CCCCC3)ccc2O[C@@H]1CN(C)Cc1ccc(C(F)(F)F)cc1 | inactive | inactive | inactive
21 | COCCNC(=O)c1cn(C)nc1OC | inactive | inactive | inactive
22 | C[C@H](CO)N1C[C@H](C)[C@@H](CN(C)S(=O)(=O)c2ccc(F)cc2)Oc2ccc(NS(=O)(=O)c3cn(C)cn3)cc2C1=O | inactive | inactive | inactive
23 | C[C@@H]1CN([C@H](C)CO)C(=O)c2cc(C#CCN(C)C)cnc2O[C@@H]1CN(C)C(=O)c1cnccn1 | inactive | inactive | inactive
24 | COc1ccc(NC(=O)N(C)C[C@H]2Oc3ccc(NS(=O)(=O)c4c(C)noc4C)cc3CC(=O)N([C@H](C)CO)C[C@H]2C)cc1 | inactive | inactive | inactive
25 | C[C@@H]1CN([C@@H](C)CO)C(=O)Cc2cc(NC(=O)Nc3ccc(F)cc3)ccc2O[C@H]1CN(C)Cc1ccc(C(=O)Nc2ccccc2N)cc1 | inactive | inactive | inactive
